# Laboratory results from the supplement of paper PMC8728848.
# The list shows a part of the results.
# Assays:
# Assay in all cases: glycan array binding signal (z-score within array); higher = stronger binding
# Conditions in all cases: glycan notation: IUPAC condensed, linker removed
# [1] = target: Fuc(a1-2)Gal
# How it was run: (§1)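 Glycan array data came from 3228 arrays in the Consortium for Functional Glycomics database, and only arrays with an available protein sequence were kept. Glycan names were put into IUPAC-condensed notation, and columns mapping to the same glycan were averaged. The binding signal is a within-array Z-score, averaged across arrays of one protein sequence run at different concentrations or buffers and across linkers. A negative Z-score can be read as non-binding.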
# [2] = target: Fuc(a1-2)Gal(b1-3)GalNAc
# How it was run: as §1
# [3] = target: Fuc(a1-2)Gal(b1-3)GalNAc(a1-3)[Fuc(a1-2)]Gal(b1-4)Glc
# How it was run: as §1
# [4] = target: Fuc(a1-2)Gal(b1-3)GalNAc(a1-3)[Fuc(a1-2)]Gal(b1-4)GlcNAc
# How it was run: as §1
# [5] = target: Fuc(a1-2)Gal(b1-3)GalNAc(b1-3)Gal
# How it was run: as §1
# [6] = target: Fuc(a1-2)Gal(b1-3)GalNAc(b1-3)Gal(a1-4)Gal(b1-4)Glc
# How it was run: as §1
# [7] = target: Fuc(a1-2)Gal(b1-3)GalNAc(b1-3)Gal(b1-4)Glc
# How it was run: as §1
# [8] = target: Fuc(a1-2)Gal(b1-3)GalNAc(b1-4)[Neu5Ac(a2-3)]Gal(b1-4)Glc
# How it was run: as §1
# [9] = target: Fuc(a1-2)Gal(b1-3)GlcNAc
# How it was run: as §1
# [10] = target: Fuc(a1-2)Gal(b1-3)GlcNAc(b1-2)Man(a1-3)[Fuc(a1-2)Gal(b1-3)GlcNAc(b1-2)Man(a1-6)]Man(b1-4)GlcNAc(b1-4)GlcNAc
# How it was run: as §1
# [11] = target: Fuc(a1-2)Gal(b1-3)GlcNAc(b1-2)Man(a1-3)[Fuc(a1-2)Gal(b1-3)GlcNAc(b1-2)Man(a1-6)]Man(b1-4)GlcNAc(b1-4)[Fuc(a1-6)]GlcNAc
# How it was run: as §1
# [12] = target: Fuc(a1-2)Gal(b1-3)GlcNAc(b1-3)Gal(b1-4)Glc
# How it was run: as §1
# [13] = target: Fuc(a1-2)Gal(b1-3)GlcNAc(b1-3)GalNAc
# How it was run: as §1
# [14] = target: Fuc(a1-2)Gal(b1-3)GlcNAc(b1-3)[Fuc(a1-2)Gal(b1-3)GlcNAc(b1-6)]GalNAc
# How it was run: as §1
# [15] = target: Fuc(a1-2)Gal(b1-3)GlcNAc(b1-3)[Fuc(a1-3)[Gal(b1-4)]GlcNAc(b1-6)]Gal(b1-4)Glc
# How it was run: as §1
# [16] = target: Fuc(a1-2)Gal(b1-3)GlcNAc(b1-3)[Gal(b1-4)GlcNAc(b1-6)]Gal(b1-4)Glc
# How it was run: as §1
# [17] = target: Fuc(a1-2)Gal(b1-3)GlcNAc(b1-3)[Neu5Ac(a2-6)Gal(b1-4)GlcNAc(b1-6)]Gal(b1-4)Glc
# How it was run: as §1
# [18] = target: Fuc(a1-2)Gal(b1-3)GlcNAc6S
# How it was run: as §1
# [19] = target: Fuc(a1-2)Gal(b1-3)[Fuc(a1-4)]GlcNAc
# How it was run: as §1
# [20] = target: Fuc(a1-2)Gal(b1-3)[Fuc(a1-4)]GlcNAc(b1-2)Man(a1-3)[Fuc(a1-2)Gal(b1-3)[Fuc(a1-4)]GlcNAc(b1-2)Man(a1-3)]Man(b1-4)GlcNAc(b1-4)GlcNAc
# How it was run: as §1
# [21] = target: Fuc(a1-2)Gal(b1-3)[Fuc(a1-4)]GlcNAc(b1-2)Man(a1-3)[Fuc(a1-2)Gal(b1-3)[Fuc(a1-4)]GlcNAc(b1-2)Man(a1-6)]Man(b1-4)GlcNAc(b1-4)GlcNAc
# How it was run: as §1
# [22] = target: Fuc(a1-2)Gal(b1-3)[Fuc(a1-4)]GlcNAc(b1-2)Man(a1-3)[Fuc(a1-2)Gal(b1-3)[Fuc(a1-4)]GlcNAc(b1-2)Man(a1-6)]Man(b1-4)GlcNAc(b1-4)[Fuc(a1-6)]GlcNAc(b1-4)[Fuc(a1-6)]GlcNAc
# How it was run: as §1
# [23] = target: Fuc(a1-2)Gal(b1-3)[Fuc(a1-4)]GlcNAc(b1-2)Man(a1-6)[Fuc(a1-2)Gal(b1-3)[Fuc(a1-4)]GlcNAc(b1-2)Man(a1-3)]Man(b1-4)GlcNAc(b1-4)[Fuc(a1-6)]GlcNAc
# How it was run: as §1
# [24] = target: Fuc(a1-2)Gal(b1-3)[Fuc(a1-4)]GlcNAc(b1-3)[Fuc(a1-3)[Gal(b1-4)]GlcNAc(b1-6)]Gal(b1-4)Glc
# How it was run: as §1
# [25] = target: Fuc(a1-2)Gal(b1-3)[Fuc(a1-4)]GlcNAc(b1-3)[Gal(b1-4)GlcNAc(b1-6)]Gal(b1-4)Glc
# How it was run: as §1
# [26] = target: Fuc(a1-2)Gal(b1-4)Fuc(a1-3)]GlcNAc(b1-2)Man(a1-3)[Fuc(a1-2)Gal(b1-4)[Fuc(a1-3)]GlcNAc(b1-2)Man(a1-6)]Man(b1-4)GlcNAc(b1-4)GlcNAc
# How it was run: as §1
# [27] = target: Fuc(a1-2)Gal(b1-4)Glc
# How it was run: as §1
# [28] = target: Fuc(a1-2)Gal(b1-4)Glc6S
# How it was run: as §1
# [29] = target: Fuc(a1-2)Gal(b1-4)GlcNAc
# How it was run: as §1
# [30] = target: Fuc(a1-2)Gal(b1-4)GlcNAc(b1-2)Man
# How it was run: as §1
binder,measurement,setting,value
Gal 7 (Homo sapiens) (protein) MSNVPHKSSLPEGIRPGTVLRIRGLVPPNASRFHVNLLCGEEGGSDAALHFNPRLDTSEVVFNSKEGGSWGREERGPGVPFGRGQPFEVLIIASDDGFKAVVGDAQYHHFRHRLPLARVRLVEVGGDVQLDSVRIF,glycan array binding signal (z-score),[1],-0.282
same,glycan array binding signal (z-score),[2],0.427
same,glycan array binding signal (z-score),[3],0.02
same,glycan array binding signal (z-score),[4],-0.264
same,glycan array binding signal (z-score),[5],-0.329
same,glycan array binding signal (z-score),[6],-0.316
same,glycan array binding signal (z-score),[7],1.09
same,glycan array binding signal (z-score),[8],-0.316
same,glycan array binding signal (z-score),[9],-0.279
same,glycan array binding signal (z-score),[10],0.053
same,glycan array binding signal (z-score),[11],0.184
same,glycan array binding signal (z-score),[12],-0.265
same,glycan array binding signal (z-score),[13],-0.125
same,glycan array binding signal (z-score),[14],0.136
same,glycan array binding signal (z-score),[15],-0.35
same,glycan array binding signal (z-score),[16],-0.271
same,glycan array binding signal (z-score),[17],-0.179
same,glycan array binding signal (z-score),[18],0.159
same,glycan array binding signal (z-score),[19],-0.167
same,glycan array binding signal (z-score),[20],-0.195
same,glycan array binding signal (z-score),[21],0.34
same,glycan array binding signal (z-score),[22],-0.151
same,glycan array binding signal (z-score),[23],0.558
same,glycan array binding signal (z-score),[24],-0.239
same,glycan array binding signal (z-score),[25],-0.247
same,glycan array binding signal (z-score),[26],-0.059
same,glycan array binding signal (z-score),[27],0.571
same,glycan array binding signal (z-score),[28],0.834
same,glycan array binding signal (z-score),[29],-0.315
same,glycan array binding signal (z-score),[30],-0.179
